The source of these data is the supplement of paper PMC11417369.

The other results are listed elsewhere or left out.

The subject of this experiment is PfAP2-HC AP2 domain (GST-tagged). Put plainly: gcPBM binding intensity (ln(normalized median fluorescence intensity)); higher = stronger DNA binding. Put shortly: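 Each value is the highest Masliner-normalised natural-log median intensity across replicate spots of either orientation of a probe. The probes were primer-extended double-stranded 36-bp intergenic genomic sequences on an Agilent 4 × 180k array, alongside negative controls, exposed for 1 h to GST-tagged P. falciparum DNA-binding domains expressed in E. coli. Bound protein was picked up with Alexa488 anti-GST antibody and scanned at 488 nm.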
As for “TAATATTATATTTATAGTACATATAATATATATATA [XGTACX_site2964]”, the “gcPBM binding intensity (ln)” value came out at 9.44. With “GAACACTAATAATGTTGTACACGTAATTATATATTT [XGTACX_site777]” the figure was 9.82; with “AAACACACACACAAATGTACATATATATATATATTT [XGTACX_site5090]”, 10.3; with “ATATATTTTCATTTTACACACAAATAAAGATAATTT [CACACA_site2996]”, 9.76.

With “AAAATAAATAAAAAAAGTACATATATAATTTATAAA [XGTACX_site2411]”, the “gcPBM binding intensity (ln)” value stood at 9.78. With “TAAATTAATAAAAAGTGTACATAATATACATATATA [XGTACX_site8604]” the figure was 9.76; with TACAATACCGTACAGGTGCAACTAGCCAAAAAAAAG, 9.75.

“ATAATTAAAAAAGGAATATATATATATATATATATA [GTGCAC_negctrl_site343]”: the “gcPBM binding intensity (ln)” value stood at 9.46. With “CGTATGACATAATATTGTACTTTTGATATACATCAT [XGTACX_site7366]” the figure was 9.58. With TTTAATAATATTTAGGTGCTATATATTATATGTATA the figure was 9.52. With “AAACAAAAAAGAAACACACACTAATTAAATTTTCTT [CACACA_site4746]” the figure was 10; with “TATTAAAGATACTCGGTATAAATAAATTTTAATGTG [XGTACX_negctrl_site239]”, 9.63; with “AAGTGGCATATAAGTAAAAAATATATACAAGTATAT [GTGCAC_negctrl_site427]”, 9.56. As to “CTCAATATATTTGATTTACACACTTACAATGTATAT [CACACA_site8982]”, the “gcPBM binding intensity (ln)” value stood at 9.88. With “ATGCTTATTATTTATTGTACTGAATAAATATATCTG [XGTACX_site4483]” the figure was 9.69; with “ACAACATGCACACGCACACACAAAAAAAGCATGCAT [CACACA_site6185]”, 10.3; with “TATAAAAAATATAATTGTACATAAAGGTTAAAATGT [XGTACX_site6138]”, 9.73. In the case of “TTATTTCTACCTTTTTGTACACATTATTATGAAACC [XGTACX_site5325]”, the “gcPBM binding intensity (ln)” value is 9.84. With “ATAAATCATAAGGAGAGTACATAAATAAAATAATCA [XGTACX_site8825]” the figure was 9.74; with “TATATATGGAAAAGGTGTACATTCAATATATATATA [XGTACX_site3167]”, 9.62; with “CTATAATATAGGTATACACACATATTATAGAATATT [CACACA_site7696]”, 9.79. With “ATATAAAATAGACACGCACACAAAAAAAAAAAAAAA [CACACA_site3522]” the figure was 10.4.

“TATGTCAAAAAATAATGTACAAAAAAATTAACATAA [XGTACX_site5463]”: the “gcPBM binding intensity (ln)” value came out at 9.66. With TATATTTTTTTTCTAGTGCATATTATTAATTAAGTT the figure was 9.62; with “TGAGTATTTTTTTAATGTACTTATATTAAAAGGAAA [XGTACX_site6286]”, 9.34. With “TACAAAATAAGACATGCATGTTATACATATATATTT [TGCATGCA_site321]” the figure was 9.89.

As for “AAAATATTATTTTGTTGTACATATAAAATTTTAAGC [XGTACX_site1866]”, the “gcPBM binding intensity (ln)” value is 9.63. “TTTATTTTGTAGTGTACACATATATATATATATATA [CACACA_site5843]”: the “gcPBM binding intensity (ln)” value is 9.76. With “TATAAGAATGACAAGTGTACATATCAAATATATTAG [XGTACX_site7113]” the figure was 9.79; with “TATTTTTTATATTTATTTATTTAAAGGAGCTTTTCT [GTGCAC_negctrl_site293]”, 9.27; with “TATACTAAAAAATACACATGCACATACAATATATAT [TGCATGCA_site1016]”, 10.1. With “AATATAAATTAATTTACACACTAAAAAATATTTATA [CACACA_site7728]” the figure was 9.59.

On to “ACATACTTTAATATATGTACATAAGAAAAAAAAAAA [XGTACX_site2991]”, for which the “gcPBM binding intensity (ln)” value worked out at 9.73. With “TGTACATATATATATATAATAATAGTTATGTTTATT [CACACA_negctrl_site1474]” the figure was 9.64; with “TTTTTTTATAGCTAAACACACATAAGAATATATGTT [CACACA_site1099]”, 9.6; with “AAAATAATATATAATTGTACTTTTTTTTTATATATA [XGTACX_site6093]”, 9.51. For “ATTATTACACAACGTTGTACATTTCAATATTTTTAT [XGTACX_site5096]”, the “gcPBM binding intensity (ln)” value was 9.95. As to “TTTTTTCTTAAAATTTGTACATAGTGCAATTTTTTT [XGTACX_site5509]”, the “gcPBM binding intensity (ln)” value was 9.54. For the sequence “TTTCTTTTTTTTTAATGTACTTTTTTTATAAAAGGT [XGTACX_site5688]”, the “gcPBM binding intensity (ln)” value came to 9.36. With “TCCTCTTCAATATATATATATTATAAATAAATAAAT [CACACA_negctrl_site1756]” the figure was 9.15; with “TTTGAATTTTTTAACACACACATGTGTGGATATATA [CACACA_site6872]”, 9.88; with “TATTAACACTTTATAGAAACAAAAAAATAAGCAAAA [XGTACX_negctrl_site295]”, 9.54. Turning to “ATATATATAATAAACACACACATATACATATATGTA [CACACA_site3462]”, the “gcPBM binding intensity (ln)” value was 10.3. With “AAGTTGTATATTGATTGTACTTGTTTAGGGTTATAG [XGTACX_site2953]” the figure was 9.84. With “AGGTAAAATATACATTGTACATATAATTAATTTATT [XGTACX_site626]” the figure was 9.77.
